Measured values reported in patent publication US20020009726A1 (LA JOLLA CANCER RESEARCH FOUNDATION, published 2002).

Target: T1, CD40 from RS11846 B-cell lymphoma cell lysate (human, UniProt P25942 21-277)
T1 construct: Endogenous protein solubilised from cells; also called CD40 in the cell lysate
Test: GST pull-down from RS11846 lymphoma cell lysate, western blot with anti-CD40
Description: For experiments with cell lysates, 2×10⁷ RS11846 B-cell lymphoma cells were lysed in 0.25 ml of ice-cold Tris buffered saline (TBS) pH 7.4 (10 mM Tris and 150 mM NaCl) including 5 mM EDTA, 1% Triton-X100, with protease inhibitors PMSF, aprotinin, leupeptin, benzamidine, and pepstatin. Nuclei and cellular debris were removed from the cell lysate by centrifugation as described (Reed et al., Canc. Res. 51:6529-6538 (1991)). […] Proteins adsorbed to beads were eluted by boiling in SDS-PAGE sample buffer, electrophoresed in SDS-PAGE gels containing 12% acrylamide and then transferred to nitrocellulose for western blotting. The resulting blots were preblocked in TBS buffer containing 5% non-fat milk and 3% bovine serum albumin and then incubated with 2 μl/ml of anti-human CD40 monoclonal antibody B-B20 (Biosource, Inc., Camarillo Calif.) followed by horseradish peroxidase-conjugated goat anti-mouse IgG (see Reed et al., supra, 1992; Hanada et al., Canc. Res. 53:4978-4986 (1993), which is incorporated herein by reference). The presence of bound peroxidase was detected using an emission chemiluminescence method performed according to the manufacturer's instructions (Amersham, Inc., Arlington Heights Ill.).

T1 sequence (P25942 21-277 limits assumed): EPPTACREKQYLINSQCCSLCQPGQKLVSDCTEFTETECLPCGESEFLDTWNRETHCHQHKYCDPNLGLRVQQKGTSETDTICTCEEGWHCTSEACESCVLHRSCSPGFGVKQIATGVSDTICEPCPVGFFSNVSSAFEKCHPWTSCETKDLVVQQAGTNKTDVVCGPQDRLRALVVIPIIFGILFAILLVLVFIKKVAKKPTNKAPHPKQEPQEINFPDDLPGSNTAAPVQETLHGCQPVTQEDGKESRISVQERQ

B1: GST (enzyme)
chain: not shown
notes: Control bait on glutathione-Sepharose beads; also called GST itself; GST-control protein
  binding result: no binding
